{
  "source": "paper PMC12136788",
  "binders": {"B1": {"name": "42866607_42871225_373_CDS_ENSG00000023516_ENST00000025301|human|control|control (ssRNA)", "RNA": "GGGAGUUCUACAGUCCGACGAUCAUUCAGAAUAUCUGGAAGUUCCAAAGAAACUGCAGCUAAAUCCUGUAUAUGAGCAGCAUCUGUCUCUUCAUUAAAACCCAGAAAUGUGACCUCAGUUAAAUUGGCAUGCUCAUCCUGCUGCAACAGAGGAUUGAGCAUCA"}, "B2": {"name": "chr2:65331917:65331918:-_ENSG00000138069_ENST00000409751|hu_hu|FALSE|FALSE (ssRNA)", "RNA": "GGGAGUUCUACAGUCCGACGAUCAUAACUGGAGGUGAUUGUUCGAAAUCUUUCCUGGCCUGCUGUGUCCCAUGCAAACCUAAGAAGAAGGCAAGACUUUCCAACCCCUGAGUCGCCAAUCAGAAGUAACUUGAAUAAAUAAUCCAACAGAGGAUUGAGCAUCA"}, "B3": {"name": "chr4:144460044:144460045:+_ENSG00000153147_ENST00000283131|hu_mus|hu_hu_hu_mus_False|8_98 (ssRNA)", "RNA": "GGGAGUUCUACAGUCCGACGAUCACGGUCCAUAGCCUGAAGAUCUACUUGCGGAUUCCAAUCUGAGUCAUAUAAAAUGACUACAUCAGCAGUUGCAAGAUUGAUGCCCAGACCACCAGCACGUGUGCUUAACAUGAAUACAAACAACAGAGGAUUGAGCAUCA"}, "B4": {"name": "chr5:64741823:64741824:+_ENSMUSG00000029174_ENSMUST00000119756|mus_hu|motif|central (ssRNA)", "RNA": "GGGAGUUCUACAGUCCGACGAUCGAAAUAUCUCAGACCCCACAACUGCAGCUCACAUGCUAGCAAUACCUGGUAGGGUCGGAAAGGUGUCAGCUGUCCCAUAAAGCAUUUACCUACUAUGACUUUGAUCAACUGUACUUAUGGCAACAGAGGAUUGAGCAUCA"}, "B5": {"name": "chr6:47494509:47494510:-_ENSMUSG00000029687_ENSMUST00000081721|mus_hu|motif|central (ssRNA)", "RNA": "GGGAGUUCUACAGUCCGACGAUCCCCAAUUAACCUAGCAAUGGCACAGAAAUUGUCAUAGUAAGUGCCAAUGAGGACUCGGAACAUUGAGGCUUCAGCACCACUCCACUCCACAUUCUCAGGAGGUUCAAUAUUUGGCUUCAUCAACAGAGGAUUGAGCAUCA"}, "B6": {"name": "chr7:151048522:151048523:+_ENSG00000013374_ENST00000566856|hu_mus|hu_hu_hu_mus_True|58_108 (ssRNA)", "RNA": "GGGAGUUCUACAGUCCGACGAUCCUGCUUCUUAUUUAUUACGAUCUUGAUGUAAUUUUCUUGAAAUCCGAAAGUUUCAGCUAUUUUACACCUCAGGUCUCUACCAGUGACAUGCAAGCGGGUCUCCAACAAGCUUUUCUUAUCCAACAGAGGAUUGAGCAUCA"}, "B7": {"name": "chr11:119138191:119138192:+_ENSMUSG00000025579_ENSMUST00000026666|mus_mus|FALSE|FALSE (ssRNA)", "RNA": "GGGAGUUCUACAGUCCGACGAUCCCCAGUCUCGUUGGUGAUGAACACGCCCCUCCGCAGACCCUCGUCGUAGGGCCUGUAACUCCCAGCAGGGCCUGCGCUGCUGAUGGCAGGGUCCACGAUCAUCAUGUAGCGCCGGCCAUCCAACAGAGGAUUGAGCAUCA"}, "B8": {"name": "chr4:148551591:148551592:-_ENSMUSG00000063077_ENSMUST00000060537|mus_hu|mus_mus_mus_hu_False|18_108 (ssRNA)", "RNA": "GGGAGUUCUACAGUCCGACGAUCACCUUACAAAAUUAAAUAUCCCUGUAAAUUAGACAAUAAGCAGCAGGCAACAAAGUCUUUGCUUUGGAAUAUGUGCCAGGAAAAGUCAUCUUGUAGACCCCAAUCAAGAGACAGUUCACACAACAGAGGAUUGAGCAUCA"}, "B9": {"name": "chr1:163117127:163117128:-_ENSG00000143248_ENST00000313961|hu_mus|hu_hu_hu_mus_False|58_58 (ssRNA)", "RNA": "GGGAGUUCUACAGUCCGACGAUCUGCUACAAAGGAUGUAACUCAACUCACAGGGCAACUUUUGGAAGCCUGACCAGAUUACUACUUGAUUAGCUCCUUAUAAAAUUCAGAGCGCACAAAGCGGGGCAGAGAAUCCUUCUCCAUCAACAGAGGAUUGAGCAUCA"}, "B10": {"name": "chr2:179515052:179515053:+_ENSMUSG00000000305_ENSMUST00000000314|mus_hu|mus_mus_mus_hu_False|58_98 (ssRNA)", "RNA": "GGGAGUUCUACAGUCCGACGAUCGCUGUCCCAUGCAGUGACGGUAAACGCCACCUGCUCGGAGGGGACCUGCAGCUCCCUAGUGGCGAAGACUGUCCCAUCUGCCCCAACUUUGAAGUCCAUGCUGUUGGUCUCAUAUUGUGUCAACAGAGGAUUGAGCAUCA"}, "B11": {"name": "chr8:24049560:24049561:+_ENSMUSG00000031540_ENSMUST00000044331|mus_hu|FALSE|FALSE (ssRNA)", "RNA": "GGGAGUUCUACAGUCCGACGAUCACUGCUGACCGAACGGACUGACUGGCUGGGGUGAGACUGAACGGAGGAGAUAGGGCUAUUAUGUUCUGACGCAUGACAGUCUUCAACCAUGGACAUCUGAGGGUCCUCGUCAGCCUGGGUCAACAGAGGAUUGAGCAUCA"}, "B12": {"name": "chr2:198351390:198351391:-_ENSG00000144381_ENST00000345042|hu_hu|hu_hu_hu_mus_False|8_78 (ssRNA)", "RNA": "GGGAGUUCUACAGUCCGACGAUCUCAUUCCCACCCUCCACAGAAAGGCUGCUUCUGUUCUCAUCUGUGGUGACACAGCGCUACAGUCCUGAUGCUCACAGAACAGUAGAGAUGCCUCAGUGAUUUAUUAAGUUGAAAGGACACCAACAGAGGAUUGAGCAUCA"}, "B13": {"name": "chr20:9438074:9438075:+_ENSG00000101333_ENST00000334005|hu_mus|FALSE|FALSE (ssRNA)", "RNA": "GGGAGUUCUACAGUCCGACGAUCUUUGUGAUCCGUUGUCAGGGUCUGAAUUUUAAUUUCUGUUUCUUUUUUUAUUUCAAGACAAUUACUUCCCCCCUUCUUCUUCAUCGCCUUCUCUAGGAUUUUCUCAUGAGUCGACUUCUCCAACAGAGGAUUGAGCAUCA"}, "B14": {"name": "chr7:75932113:75932114:+_ENSG00000106211_ENST00000248553|hu_hu|hu_hu_hu_mus_False|1_28 (ssRNA)", "RNA": "GGGAGUUCUACAGUCCGACGAUCCUGCGACCACUCAUCGGGCAACCGGGGCACCCCGAAAGCUUGAUCGAAGAGGCGGCUGUGUGCAGGGUACCAGUCCCGGAAUGCCCAGCUGGGCGGGCUCCGCAGCAGCGAGAGGACGCGCAACAGAGGAUUGAGCAUCA"}},
  "note": "This is one part of the list.",
  "data": [
    {"biological_target": "T1, UNK ZnF1-3 (human, UniProt Q9C0B0 31-174)", "T1 sequence": "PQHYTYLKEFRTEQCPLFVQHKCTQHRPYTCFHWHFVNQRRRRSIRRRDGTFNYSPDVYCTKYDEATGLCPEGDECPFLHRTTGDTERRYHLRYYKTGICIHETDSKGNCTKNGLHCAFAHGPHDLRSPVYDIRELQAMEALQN", "experiment": "nsRBNS (natural sequence RNA bind-n-seq); RBNS binding buffer (assumed for nsRBNS): 25 mM Tris pH 7.5, 150 mM KCl, 3 mM MgCl2, 0.01% Triton X-100, 500 ug/ml BSA, 20 U/ml SUPERase-In, 4 C; UNK is unkempt and MSI1 is Musashi-1; names of the RNAs are library labels; protein concentration not given here; high values mean tight binding", "units": {"binding signal": "enrichment R"}, "values": [
      {"binder": "B1", "binding signal": 1.5},
      {"binder": "B2", "binding signal": 1.46},
      {"binder": "B3", "binding signal": 1.04},
      {"binder": "B4", "binding signal": 0.55},
      {"binder": "B5", "binding signal": 1.31},
      {"binder": "B6", "binding signal": 0.695},
      {"binder": "B7", "binding signal": 0.711},
      {"binder": "B8", "binding signal": 1.45},
      {"binder": "B9", "binding signal": 1.13},
      {"binder": "B10", "binding signal": 0.724},
      {"binder": "B11", "binding signal": 0.804},
      {"binder": "B12", "binding signal": 1.66},
      {"binder": "B13", "binding signal": 0.283},
      {"binder": "B14", "binding signal": 0.553}
    ]}
  ]
}
